Results: patent US20250066451A1 (SWEDISH ORPHAN BIOVITRUM AB PUBL, published 2025)
Positions count from the first letter of the chain named.

T1: human IL-1R-I (RnD Systems cat. no. 269-1R/CF) (human, UniProt P14778 18-332, limits assumed)
T1 construct: bought protein; also called hIL-1R-I; hIL-1RI
T1 sequence (looked up): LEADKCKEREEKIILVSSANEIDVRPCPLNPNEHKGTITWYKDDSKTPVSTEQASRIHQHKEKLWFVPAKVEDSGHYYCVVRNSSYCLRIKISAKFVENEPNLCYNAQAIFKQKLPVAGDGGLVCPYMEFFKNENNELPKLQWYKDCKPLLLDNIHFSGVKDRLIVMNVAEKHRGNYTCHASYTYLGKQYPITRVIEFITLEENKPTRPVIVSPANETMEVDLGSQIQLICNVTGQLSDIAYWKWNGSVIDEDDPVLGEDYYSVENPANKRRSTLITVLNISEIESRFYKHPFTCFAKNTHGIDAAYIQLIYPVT

T2: Human IL-1R-I-Fc (Creative BioMart cat. no. IL1RI-771H) (human, UniProt P14778 18-332, limits assumed)
T2 construct: bought protein; also called hIL-1R-I-Fc; hIL-1RI-Fc
T2 sequence (looked up): T1 sequence (looked up)

B1: Z16023-ABD (designed binder)
chain: AQHDEALEVDAKYAKEVEEAQMEIFALPNLTRKQYTAFIRKLLDDPSQSSELLSEAKKLNDSQAPKVDYVLAEAKVLANRELDKYGVSDYYKNLINNAKTVEGVKALIDEILAALPYVPG
B2: Z16028-ABD (designed binder)
chain: B1 chain with V17I, E18R, E19D, A26D, L43F
B3: Z16029-ABD (designed binder)
chain: B1 chain with V17I, E19D, M22L
B4: Z15840-ABD (designed binder)
chain: B1 chain with E19V
B5: Z16035-ABD (designed binder)
chain: B1 chain with V17L
B6: Z15953-ABD (designed binder)
chain: B1 chain with V17T, E19K
B7: Z16027-ABD (designed binder)
chain: B1 chain with E18Y, E19Q, A26Y
B8: Z15897-ABD (designed binder)
chain: B1 chain with V17T, E19N
B9: Z16048-ABD (designed binder)
chain: B1 chain with V17I, F25Y, A26Y, L43F
B10: Z16040-ABD (designed binder)
chain: B1 chain with E18Q, E19D, A26E
B11: Z16034-ABD (designed binder)
chain: B1 chain with A26E, L43F
B12: Z16036-ABD (designed binder)
chain: B1 chain with E19T, A26E, L43F
B13: Z16063-ABD (designed binder)
chain: B1 chain with V17I, E19S, A26Y
B14: Z16031-ABD (designed binder)
chain: B1 chain with V17A, E18Y, E19Y
B15: Z16032-ABD (designed binder)
chain: B1 chain with V17A, E19D, Q21Y, F25Y, A26E
B16: Z16039-ABD (designed binder)
chain: B1 chain with Q21Y, F25Y, A26H
B17: Z16025-ABD (designed binder)
chain: B1 chain with E19V, Q21Y, F25Y, A26N
B18: Z16042-ABD (designed binder)
chain: B1 chain with E19D, A26G
B19: Z16011-ABD (designed binder)
chain: B1 chain with V17I, E19V, L43F
B20: Z16041-ABD (designed binder)
chain: B1 chain with V17I, E19T, L43F
B21: Z16022-ABD (designed binder)
chain: B1 chain with V17I, E19F, L43F
B22: Z15876-ABD (designed binder)
chain: B1 chain with V17I, E19A, A26G, L43F
B23: Z16030-ABD (designed binder)
chain: B1 chain with E19Y
B24: Z16026-ABD (designed binder)
chain: B1 chain with E19K, F25Y, A26Y, L43F
B25: Z16037-ABD (designed binder)
chain: B1 chain with V17I, E19D, A26Q
B26: Z16055-ABD (designed binder)
chain: B1 chain with V17I, A26G
B27: Z16033-ABD (designed binder)
chain: B1 chain with V17I, E19D, Q21Y, F25Y, A26R, K33R
B28: Z15824-ABD (designed binder)
chain: B1 chain with V17I, L43F
B29: Z16061-ABD (designed binder)
chain: B1 chain with V17I, E19A, A26Y
B30: Z16038-ABD (designed binder)
chain: B1 chain with E19D, A26E, L43F
B31: Z16060-ABD (designed binder)
chain: B1 chain with F25Y, A26S, L43F
B32: Z16057-ABD (designed binder)
chain: B1 chain with V17A, A26T
B33: Z16059-ABD (designed binder)
chain: B1 chain with V17T, E18Y, E19Y, A26S
B34: Z16024-ABD (designed binder)
chain: B1 chain with A26T
B35: Z16056-ABD (designed binder)
chain: B1 chain with E19Q, A26G
B36: Z16043-ABD (designed binder)
chain: B1 chain with V17T, A26R, K33R
B37: Z16046-ABD (designed binder)
chain: B1 chain with V17I, E18Y, E19S, A26K, L43F
B38: Z16065-ABD (designed binder)
chain: B1 chain with K33R
B39: Z16044-ABD (designed binder)
chain: B1 chain with E19R, A26N, L43F
B40: Z16047-ABD (designed binder)
chain: B1 chain with V17I, E19K, A26S
B41: Z16062-ABD (designed binder)
chain: B1 chain with V17I, A26Y, L43F
B42: Z16045-ABD (designed binder)
chain: B1 chain with V17A, E19Y, K33R
B43: Z16052-ABD (designed binder)
chain: B1 chain with V17I, E19A, A26D, L43F

The binders below were run against T1, human IL-1R-I (RnD Systems cat. no. …) (assay: Biacore kinetic screening, Z-ABD captured on anti-ABD, 100 nM hIL-1R-I).

Kd [nM] | Binder
9.2 | B1
19 | B2
21 | B3
11 | B4
17 | B5
11 | B6
14 | B7
12 | B8
11 | B9
20 | B10
9.1 | B11
11 | B12
12 | B13
20 | B14
26 | B15
14 | B16
19 | B17
9.7 | B18
11 | B19
10 | B20
15 | B21
8.3 | B22

Kd [nM] | Binder
17 | B23
16 | B24
14 | B25
12 | B26
19 | B27
9.2 | B28
12 | B29
8.9 | B30
19 | B31
33 | B32
16 | B33
14 | B34
13 | B35
8.3 | B36
18 | B37
7.8 | B38
17 | B39
19 | B40
7.6 | B41
20 | B42
12 | B43

The binders below were run against T2, Human IL-1R-I-Fc (Creative BioMart cat. …) (assay: ELISA, hIL-1R-I-Fc titration on Z-ABD).

EC50 [nM] | Binder
0.21 | B1
0.25 | B4
0.21 | B6
0.25 | B8
0.25 | B9
0.23 | B11
0.24 | B18
0.22 | B19
0.24 | B20
0.42 | B22
0.23 | B28
0.23 | B36
0.27 | B37
